# Screen size: about 310,000 compounds; about 2,200 (0.71%) showed an effect of 50% or more. Effects have a minus sign here. Some of the results follow.
# Target: human ether-à-go-go-related gene (hERG) potassium channel (human, UniProt Q12809)
# Assay: primary screen, population patch clamp on CHO cells stably expressing hERG
# human ether-à-go-go-related gene (hERG) potassium channel, sequence (Q12809 whole entry, looked up): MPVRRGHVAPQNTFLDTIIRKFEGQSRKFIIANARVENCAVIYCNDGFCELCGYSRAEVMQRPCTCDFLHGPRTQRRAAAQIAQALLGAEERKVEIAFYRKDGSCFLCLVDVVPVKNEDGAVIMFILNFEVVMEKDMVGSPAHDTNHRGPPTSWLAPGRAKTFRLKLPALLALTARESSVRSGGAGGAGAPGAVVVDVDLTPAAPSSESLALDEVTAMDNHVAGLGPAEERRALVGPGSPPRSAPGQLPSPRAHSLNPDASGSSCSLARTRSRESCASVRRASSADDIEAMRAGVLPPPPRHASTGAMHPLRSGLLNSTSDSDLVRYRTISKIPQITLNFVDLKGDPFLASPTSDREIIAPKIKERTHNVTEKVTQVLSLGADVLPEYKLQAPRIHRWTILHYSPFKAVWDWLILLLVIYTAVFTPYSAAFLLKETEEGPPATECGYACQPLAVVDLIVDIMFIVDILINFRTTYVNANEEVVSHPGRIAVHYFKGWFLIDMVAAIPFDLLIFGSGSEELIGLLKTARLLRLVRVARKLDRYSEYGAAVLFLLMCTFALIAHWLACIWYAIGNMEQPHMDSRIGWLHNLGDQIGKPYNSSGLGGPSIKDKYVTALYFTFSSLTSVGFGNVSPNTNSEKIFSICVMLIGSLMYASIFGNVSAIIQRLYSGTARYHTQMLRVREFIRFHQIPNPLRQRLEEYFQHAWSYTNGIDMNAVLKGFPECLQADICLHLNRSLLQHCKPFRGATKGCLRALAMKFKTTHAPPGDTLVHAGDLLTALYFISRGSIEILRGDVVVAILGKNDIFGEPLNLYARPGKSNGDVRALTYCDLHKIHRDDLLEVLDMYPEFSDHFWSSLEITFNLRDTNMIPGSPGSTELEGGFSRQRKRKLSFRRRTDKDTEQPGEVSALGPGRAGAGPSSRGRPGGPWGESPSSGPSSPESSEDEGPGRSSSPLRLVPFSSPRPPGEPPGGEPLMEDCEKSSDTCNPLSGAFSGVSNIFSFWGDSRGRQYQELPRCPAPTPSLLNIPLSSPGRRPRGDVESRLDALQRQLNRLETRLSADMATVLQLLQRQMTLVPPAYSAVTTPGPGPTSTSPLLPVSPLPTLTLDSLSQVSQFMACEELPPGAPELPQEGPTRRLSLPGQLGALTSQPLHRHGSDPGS
row,Compound,"hERG current change (%, negative = inhibition) at 1uM"
1,CNC(=O)/C(C#N)=C\c1ccc(CNS(=O)(=O)c2ccc(Cl)cc2)o1,12.3%
2,O=c1[nH]n2c(=O)c3c([nH]c2c1N=Nc1cccc(Cl)c1)CCC3,12.2%
3,CCC1Sc2ccc(S(=O)(=O)CCC(=O)Nc3ccc(NC(C)=O)cc3)cc2NC1=O (stereo not shown),15%
4,COc1ccc(CCCNC(=O)CC#N)cc1OC,11.7%
5,NCC/C=C1/c2ccccc2CSc2ccccc21.O=C(O)/C=C\C(=O)O,9.91%
6,O=C1NC(=O)C(=Cc2coc3ccccc3c2=O)C(=O)N1,14%
7,COc1cc(/C=N/NC(=O)COc2c(C)cc([N+](=O)[O-])cc2C)ccc1OC(=O)c1ccccc1,6.47%
8,O=C1CCCN2N=C(SCC(=O)Nc3ccc(Br)cc3)SC2=N1,14.1%
9,COc1ccc(Cl)cc1NC(=O)C/C(C)=N/NC(=O)c1ccc(O)cc1,8.84%
10,O=C(c1cccs1)N1CCCC(c2nc(-c3ccc(F)cc3)no2)C1 (stereo not shown),-10.8%
11,CCSc1nc2c(c(=O)[nH]c(=O)n2C)n1CC(O)COc1ccccc1 (stereo not shown),14.8%
12,Cc1ccc(S(=O)(=O)c2cc3c(=O)n4ccccc4nc3n(C)c2=N)cc1C,18.8%
13,CCOC(=O)C(NCCc1ccccc1F)(NC(C)=O)C(F)(F)F (stereo not shown),5.66%
14,CN=C(Nc1cc(C)nn1CCC#N)c1ccccc1,13.3%
15,COc1cccc(NC(=O)Nc2cccn(Cc3ccccc3)c2=O)c1,-1.23%
16,CCOC(=O)COc1ccc2c(c1)c(C(C)=O)c(C)n2-c1ccc(OC)cc1,6.9%
17,O=C(NCc1cccnc1)c1cc(S(=O)(=O)N2CCOCC2)c(Cl)cc1Cl,8.44%
18,Cc1ccc(S(=O)(=O)NC2(C(F)(F)F)C(=O)Nc3c2c(=O)[nH]c(=O)n3-c2ccccc2)cc1 (stereo not shown),12.2%
19,OCCC1CN(Cc2ccccc2-c2ccco2)CCN1C1CCCC1 (stereo not shown),-44.6%
20,CCN(C(=O)CSc1ccc2ccccc2n1)C1CCS(=O)(=O)C1 (stereo not shown),3.17%
21,COc1ccc(-c2cc(C(=O)n3cnc4ccccc43)c3ccccc3n2)cc1,5.65%
22,CCc1ccc(-c2cc(C)no2)cc1S(=O)(=O)NCCN1CCC(C)CC1,12.5%
23,Cc1ccc(Nc2nnc(SCC(=O)NC3CCCc4ccccc43)s2)cc1 (stereo not shown),5.92%
24,COCCCNC(=O)COc1ccc(-c2nccc(-c3ccccn3)n2)cc1,2.01%
25,CCOC(=O)c1ccccc1NC(=O)C(C)Oc1ccccc1 (stereo not shown),9.9%
26,C/C(CC(=O)Nc1cccc(C(F)(F)F)c1)=N\NC(=O)C1CCCCC1,5.22%
27,Cc1ccc(NC(=O)CSc2nc(N)cc(=O)[nH]2)cc1S(=O)(=O)N1CCOCC1,11.5%
28,Cc1ccc(OCc2cc(C(=O)N3CCCCCCC3)no2)cc1C,13%

row,Compound,"hERG current change (%, negative = inhibition) at 1uM"
1,Cc1csc(NC(=O)CCC(=O)N(CC(=O)NC2CCCC2)Cc2ccco2)n1,7.83%
2,CCCCc1nc(N2CCOCC2)c(C#N)c2c1CCCC2,5.05%
3,CC(C)(C)CC(C)(C)NC(=S)N1CCN(Cc2ccc3c(c2)OCO3)CC1,27.4%
4,CCn1c(=O)[nH]c2cc(C(=O)N3CCN(c4ccccc4)CC3)ccc2c1=O,2.87%
5,CC1=[N+](C)N(c2ccccc2)C(=O)C1N=C/C=C/c1ccccc1 (stereo not shown),12.3%
6,Cc1c(/C=N\NC(=O)c2csc3ccccc23)cnn1C,16.9%
7,O=[N+]([O-])c1cc(S(=O)(=O)C(F)(F)F)ccc1NCC1CCCO1 (stereo not shown),14.9%
8,CCN1C[C@@]2(COC)C3[C@@H](OC)[C@H]4[C@@H]1[C@@]3(C1C[C@H]3[C@H](O)C1[C@]4(O)C[C@H]3OC)[C@@H](OC)C[C@H]2O (stereo partly shown),15.9%
9,CCOC(=O)c1ccc(NC(=O)CSc2nc3sc(C(=O)O)c(C)c3c(=O)[nH]2)cc1,9.7%
10,Cc1cc(C)n(-c2nnc(C)n2/N=C/c2ccccc2F)n1,3.39%
11,O=C(O)C(Cc1ccccc1)N1C(=O)c2ccccc2C1=O (stereo not shown),5.5%
12,CCc1nonc1NC(=O)c1oc2c(C)c(C)ccc2c1C,11.9%
13,CCCN1CCN(C(=S)Nc2ccc3nc(N4CCN(CC)CC4)cc(C)c3c2)CC1,13.6%
14,COC(CNC(=O)c1cc(-c2ccncc2)nc2ccc(S(=O)(=O)N3CCOCC3)cc12)OC,3.23%
15,O=c1c2ccccc2nc(-c2ccccc2)n1CCCn1ccnc1,-13.8%
16,CC1(C)CC(=O)C=C(Nc2cccc(F)c2)C1,11.2%
17,Cc1c(C(=O)Nc2ccc(S(=O)(=O)N3CCOCC3)cc2)cccc1[N+](=O)[O-],12.4%
18,CCc1ccc(CN(C)Cc2nc(Cc3ccccc3)no2)nc1,0.564%
19,CC(=O)/C=C\c1ccc(OC(=O)c2cccnc2)cc1,19.8%
20,CCOC(=O)C1CCN(C(=O)c2ccc(OCC(=O)Nc3cccc(C(F)(F)F)c3)c(OC)c2)CC1,-15.2%
21,O=C(CCN1C(=O)c2ccccc2C1=O)NCc1ccco1,10.3%
22,CCN(CC)S(=O)(=O)c1ccc(NC(=O)Cn2c(=O)sc3ccccc32)cc1,7.41%
23,CCCCC[C@H]1CN(Cc2ccccc2)C(=O)[C@@H]1CC(=O)NCc1ccccc1,-25.1%
24,Cc1cc(C)cc(OCC(=O)NN2C(=O)c3ccccc3C2=O)c1,15.6%
25,N/C(=N\OC(=O)c1cccc(Cl)c1)c1cccnc1,0.676%
26,CC(=O)c1ccc(N2CCC(C(=O)O)CC2)cc1,-2.38%
27,C/C(=N\OCC(=O)Nc1ccccc1C(C)(C)C)c1ccc2c(c1)OCCO2,13.9%

# Source: article PMC4336329 (PLoS ONE, 2015)
